The other results are listed elsewhere or left out.
Each sequence was assayed on PfHDP1 homeodomain (GST-tagged) (assay: gcPBM binding intensity (ln(normalized median fluorescence intensity)); higher = stronger DNA binding).
In short: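 Using an Agilent 4 × 180k array, primer-extended double-stranded 36-bp intergenic genomic probes and negative controls were exposed for 1 h to GST-fused P. falciparum DNA-binding domains expressed in E. coli. Binding was carried out in 1× PBS with 1% milk, 0.2 mg/ml BSA, 0.5% salmon testes DNA and 0.03% Triton X-100, and protein was detected with Alexa488 anti-GST antibody and a 488 nm scan. Binding intensity is the highest Masliner-normalised natural-log median intensity across replicate spots of either probe orientation.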

Compared with “TCAACTATCAATATAGTGCATTTTTTTTGGAAAACC [GTGCAC_site9927]”, “TATCAAAATTAGTATACACACAAAATTAATCAAATA [CACACA_site7117]” is lower in “gcPBM binding intensity (ln)” value: 8.2 for the first, 6.25 for the second.

First: CCTATATAATATATTTGTACTTAATAATTAAAGTGT [XGTACX_site5151]
Second: TATATATATATATATTGTACATATGTAACCTTTTAA [XGTACX_site3914]
The “gcPBM binding intensity (ln)” value of the first is lower: 6.93 for the first, 8.99 for the second.

Compared with “ATAAGATTAAACATTGCACACAGAAATATATTTTCT [CACACA_site8743]”, “CATTTTGTTTTAAAGTGTACATTATGTAATATAAAA [XGTACX_site647]” is lower in “gcPBM binding intensity (ln)” value: 9.1 for the first, 6.54 for the second.

Going from “ATTTATATTACCCTTGCATGTAGGTGCAATTTTTTT [TGCATGCA_site757]” to “TTTTTATAGGTAAAAACACACGCTAAAAATAATTAA [CACACA_site3731]”, the “gcPBM binding intensity (ln)” value falls from 10.5 to 6.41.

First: AGGTACTTTTTTAAAACACACATATAATAAATACAC [CACACA_site4730]
Second: AATAAATATATATTCACACACAAACATATATATATA [CACACA_site4023]
The “gcPBM binding intensity (ln)” value of the first is lower: 7.03 for the first, 9.01 for the second.

Compared with “AAATAAATAAATAAATAAACAAATATGTATAAATGG [XGTACX_negctrl_site153]”, “TTTATAATTTATATCACACACATATATATATAGTAA [CACACA_site8]” is higher in “gcPBM binding intensity (ln)” value: 6.4 for the first, 6.6 for the second.

Going from “ATATATATATATAAAAGTACTTATTTTTATTTACAT [XGTACX_site4299]” to “GAGAGTACCTATATTGCATGCAGACTTTTTAAATAT [TGCATGCA_site564]”, the “gcPBM binding intensity (ln)” value falls from 8.95 to 6.92.

“TAAAATAAAAATTTATGTACACATAAAAAAACAAAA [XGTACX_site1112]” and “GTTAAAATAATATGGTGTACAAATATATAAGTTCAT [XGTACX_site3262]” are the same in “gcPBM binding intensity (ln)” value: 6.67 for the first, 6.67 for the second.

Going from “TTAATAAGAGAGCAATAGGTGGACTGTTTCTTTTAT [CACACA_negctrl_site1239]” to “TTTTTTTTTTTTTGTAGTACATTATGTATATTTTTA [XGTACX_site7810]”, the “gcPBM binding intensity (ln)” value falls from 6.47 to 6.33.

Compared with “GTAATATATATTAAGTAATAGTTTATCTTAGGAAAA [TGCATGCA_negctrl_site302]”, “AATTTCTTCTTAGGGTGTACAATTTGACATAAGGAA [XGTACX_site1773]” is higher in “gcPBM binding intensity (ln)” value: 5.89 for the first, 6.77 for the second.

First: ATCTTATATCGTAGAGATTTTTTTTTTTTTTCATTT [XGTACX_negctrl_site140]
Second: GTGCCCTTTTTAATAACATGCAAATAACATATTTAT [TGCATGCA_site709]
The “gcPBM binding intensity (ln)” value of the first is lower: 5.98 for the first, 6.94 for the second.

Compared with “AAAAAAAAAAAAAACACACAAACATCAAATTATTAT [CACACA_site1838]”, “AATTAGATGGATAAATGTACATATGTGAATATATTT [XGTACX_site85]” is higher in “gcPBM binding intensity (ln)” value: 6.34 for the first, 6.77 for the second.

Compared with “ATATAACACAAGGGCACACATATACCTTTCCTTTTT [CACACA_site412]”, “TTTATATTATACGCACTAATATATATATATATATAT [TGCATGCA_negctrl_site47]” is higher in “gcPBM binding intensity (ln)” value: 6.94 for the first, 9.25 for the second.

Going from “TAATATTTTTTGTGTACACATATATATATATATATA [CACACA_site5504]” to “AATTTACATATATATTGTACATTTATGTATATATAT [XGTACX_site4186]”, the “gcPBM binding intensity (ln)” value falls from 9.37 to 6.77.

Going from “TACTTATATTGAAATGGTACAGATAAAAAAAAAAAA [XGTACX_site1407]” to “TTTTGTAATGTGAATATTTGTATATTATTTGTATAT [CACACA_negctrl_site1677]”, the “gcPBM binding intensity (ln)” value falls from 6.43 to 6.36.

First: ACATTCTATCTAAGTACACACATTAATTTTTTTTTT [CACACA_site4106]
Second: ATATTACAGTACAATACATGCATATGGAAAAAAAAA [TGCATGCA_site72]
The “gcPBM binding intensity (ln)” value of the first is higher: 6.85 for the first, 6.59 for the second.

First: GATATAGGGCGTATGTTAATCGTGAAAGAGTGTCTT [GTGCAC_negctrl_site102]
Second: TTCAAATGATTTATGTGTACATAAAATTATTTTTTA [XGTACX_site107]
The “gcPBM binding intensity (ln)” value of the first is higher: 6.81 for the first, 6.01 for the second.

Going from “ATAAAGAATATAAATACACACTTAAATATAGATTAT [CACACA_site7804]” to “ATTGGTTCCCCTCTCTTTTCAATATATTTTTTTTTT [XGTACX_negctrl_site259]”, the “gcPBM binding intensity (ln)” value falls from 6.46 to 6.17.

Going from “TAATGAAGCTTATGCACACGTTCATTATTTATATTA [CACACA_site3219]” to “AAAAAATTAAAAATCACACATAAATATATATAAAAA [CACACA_site4192]”, the “gcPBM binding intensity (ln)” value falls from 10.4 to 6.46.

First: GCCTTTTAGTATTTCACACACGTAAATGAGTATATC [CACACA_site4748]
Second: CTTCTTGTAAAATTTGCATGTAATTAAAAGAGAATG [TGCATGCA_site484]
The “gcPBM binding intensity (ln)” value of the first is higher: 6.93 for the first, 6.69 for the second.

First: TTCCCTATCTTTTCAGTGCATTTTGTTTCCTACCTT [GTGCAC_site9813]
Second: TGTAGAACTCAATATTGTACATTATATAAAATGGGA [XGTACX_site3857]
The “gcPBM binding intensity (ln)” value of the first is higher: 9.2 for the first, 6.85 for the second.

Compared with “ATAAAATTTATGACTTGTACATGTAAATAAAATATA [XGTACX_site762]”, “TTTAAATATATATATTGTACAAAAAAAAATAATAAA [XGTACX_site4759]” is higher in “gcPBM binding intensity (ln)” value: 6.7 for the first, 6.73 for the second.

In the case of “TTTTTTTGCATTTCATGTACATATATTGAGCTTAAA [XGTACX_site8485]”, the “gcPBM binding intensity (ln)” value is reported as 7.73.

Reference: the supplement of paper PMC11417369
